In the RNAGym collection of RNA variant scans (doi:10.1093/nar/gkz1192):
The source gives no read counts; variants with many changes may rest on few reads.

B1: CPEB3 Ribozyme (parent)
chain: UAACAGGGGGCCACAGCAGAAGCGUUCACGUCGCAGCCCCUGUCAGAUUCUGGUGAAUCUGCGAAUUCUGCUGUAUAUCUC

Variants of: B1
Experiment: self-cleavage, relative activity (ratio to wild type); higher = more cleavage; in vitro, sequencing
How it was run: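 Relative activity compares each variant's cleaved/total read fraction with that of the unmutated ribozyme. To get these fractions, barcoded CPEB3 ribozyme libraries from rounds of error-prone PCR were transcribed with T7 RNA polymerase for 5 hours at 37°C and then given 15 min of DNase I treatment before EDTA was added. The RNAs were reverse transcribed with template switching and sequenced on Illumina, and DNA sequencing linked barcodes to variants. A minimum of 5 reads applied, and three batches were averaged.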

| Variant | self-cleavage |
| --- | --- |
| U69A U72C A77G | 0.49 |
| A56U C62U A75U | 0.28 |
| A64U C71U U78C | 0.18 |
| A56U G63U U67C U72C | 0.19 |
| G61C A64U U72A | 0.29 |
| U66C U69A G73C | 0.26 |
| U67C U69C G70A U72C | 0.26 |
| U69C U76A U78C | 0.74 |
| U60C A65U U78A | 0.14 |
| C59G U60C U66C C68A A75G | 0.15 |
| U66A U76C A77G | 0.33 |
| U58C A64G U74A U78C | 0.28 |
| C62A U66C A75U | 0.24 |
| A57U U78C U80C | 0.44 |
| A56U A64G U66A | 0.18 |
| U60C A65G U78C | 0.23 |
| U58C U66C U80C | 0.15 |
| U66C U76C U80C | 0.54 |
| U66C A75U U78C | 0.3 |
| U60A G63U U66C | 0.23 |
| A56U U72C U74A | 0.97 |
| U58A U66C U69A | 0.14 |
| U60A U67G U72C | 0.47 |
| A65G U66C U72A | 0.22 |
| U60G A65G U66C U74C | 0.21 |
| A64U U72C A75G | 0.35 |

| Variant | self-cleavage |
| --- | --- |
| A57G U58C U78A | 0.51 |
| U72C U74C U78C | 1.31 |
| A64U A75G A77G | 0.07 |
| U58C U67A U72C | 0.21 |
| U58C U78C C79A | 0.82 |
| U60C U66C U69C U78C U80C | 0.26 |
| G63C U67C U72C | 0.24 |
| A57G U58A C62U U72C | 0.3 |
| A56G G73A U80A | 1.27 |
| A65U G70A U72C | 0.25 |
| C59A U60C U72C | 0.2 |
| A65G A77G U80C | 0.35 |
| A56U G63A U76C | 0.6 |
| A56U U66A U69C U72C C79A | 0.32 |
| A65G U69A U74C | 0.24 |
| C62U A64G U76A | 0.18 |
| U60C A64G A77G | 0.41 |
| U60A U72C C81U | 1.01 |
| U69C U72A A77G | 0.4 |
| U58A A64G U72A | 0.3 |
| U60C U69C U72A G73C | 0.36 |
| A56U A57G U78C | 0.45 |
| U67C U76A A77G | 0.43 |
| U67G U69A U76A | 0.18 |
| A56G C71G U78C | 0.19 |
| U67A U69A A75U | 0.22 |

| Variant | self-cleavage |
| --- | --- |
| U60C U76C U80A | 0.6 |
| A56U U67C U72A | 0.18 |
| C62G A65U U78G | 0.15 |
| G63U U67C A75U | 0.38 |
| U60C U69A U78A | 0.33 |
| A56U U72C A75U | 0.57 |
| A64G U74A C81G | 1.29 |
| A56U A64U A65G | 0.18 |
| U69A U74A U78C | 0.58 |
| G63A U69A U72C | 0.32 |
| U58C C62G A65U A77G | 0.19 |
| A56U A64G U67C U69C | 0.23 |
| G61C A64G U69C | 0.23 |
| U58G A77U U80C | 0.51 |
| A56U C71U U76A | 0.32 |
| G70A C71G U74C | 0.21 |
| U58A A65U U69A | 0.43 |
| A64G U67A U69C C71U | 0.25 |
| G63U U69G U72A | 0.46 |
| A56U A65G U72G | 0.22 |
| G63A A64G A77U | 0.42 |
| U74C U76A A77U | 1.24 |
| A56G U66C C68U | 0.12 |
| A57G G61U U76C | 0.26 |
| C59U A75G U80C | 0.36 |
| A56U U69A U72G U76A | 0.34 |

| Variant | self-cleavage |
| --- | --- |
| A56G U58G U69A U80C | 0.13 |
| A57U U67C U72C | 0.2 |
| A56U C68A U69G | 0.12 |
| A64G C71G U72A U78C U80C | 0.24 |
| A65U U74C U76A | 0.55 |
| A56G U58C U67A U74C U78C | 0.3 |
| G61C A64G A65G U80C | 0.25 |
| G61A U76C U80A | 1.01 |
| U60C U76A U80C | 0.73 |
| U60C U69A U72C | 0.29 |
| A56G U60C U67A U72A | 0.19 |
| U66C U74A U80A | 1.04 |
| U69C U78C U80C | 0.56 |
| U60C U74C A75U | 0.67 |
| A56U U60G U66C U80C | 0.15 |
| A56G U60G U67C | 0.14 |
| A56U A57U U72A | 0.3 |
| U58C A64U A77G | 0.17 |
| U60C A64G U69C | 0.43 |
| A56G U67G A75U U78A | 0.26 |
| U58C A64U U69C | 0.23 |
| U58C U60C A64G U67A | 0.15 |
| A56U A57G A64U U67C | 0.27 |
| A65G U72A U76A | 0.26 |
| U69A U74C U78C | 0.85 |
| U66A U67C U78C | 0.32 |

| Variant | self-cleavage |
| --- | --- |
| A56G U69C U80C | 0.45 |
| A57U U69C A77G U78A | 0.63 |
| A57U U74A U78C | 1.08 |
| A64G U66C U69C | 0.22 |
| U58C U72A U74G | 0.42 |
| A56G U58C C81G | 0.38 |
| G63U U67C U76C | 0.24 |
| A64G A75G U78C | 0.55 |
| A65G U69C U78A | 0.37 |
| U58A A64U U80C | 0.46 |
| U66C U69C U74C | 0.22 |
| U66C U69C U74A | 0.28 |
| U60C A64G U76C | 0.46 |
| A56G C68G U72C | 0.27 |
| U60C U72A U80A | 0.76 |
| U60C U67A G73A | 0.38 |
| A65G U69C U72C A75U | 0.22 |
| U60C U67C U69A | 0.45 |
| A57G U69A U72A | 0.26 |
| U58G U69C U76C U78C | 0.12 |
| U66C A75U U76A U80A | 0.41 |
| A57G U58C U76A | 0.34 |
| A57G U58C U76G | 0.23 |
| A56U A65G U66C | 0.18 |
| A56G U60C U72A U78C C81A | 0.38 |
| A56U A75G A77U | 0.58 |

| Variant | self-cleavage |
| --- | --- |
| C68U U74C A77U | 1.15 |
| U60A A65G A75G U78C | 0.18 |
| A56G U76C U78A | 1.14 |
| U58C U60G U78C | 0.22 |
| U60C U76C A77G | 0.68 |
| C62G U66G U78A | 0.13 |
| U58C U66A U78G U80C | 0.42 |
| C62A A77G C81U | 0.19 |
| U69C U76C U78C | 0.78 |
| U69C C79A C81U | 0.71 |
| A57G U66C U67A | 0.23 |
| U60A U72C C79A | 0.38 |
| U58A G63A U67C | 0.27 |
| A56U U76A C79A | 0.88 |
| G63A A64G U69C | 0.25 |
| A64U U74A A75G U80C | 0.68 |
| A64U U67C U69C | 0.19 |
| C62U U74C A75G | 0.26 |
| A57G U72C U74C | 1.35 |
| A57G U58A U69C | 0.15 |
| A56G U60A U66C | 0.21 |
| C59A U69C U74A U78C | 0.23 |
